Assay results reported in article PMC6919601, “Identification of Plasmodium dipeptidyl aminopeptidase allosteric inhibitors by high throughput screening” (PLoS ONE, 2019).
Hit rate of the full screen: of about 110,000 compounds, about 230 (0.21%) showed an effect of 50% or more. The list shows a part of the results.

These compounds were tested against DPAP1 (Plasmodium falciparum, UniProt Q8IIJ9) (assay: primary screen, percent inhibition; read by cleavage of a fluorogenic dipeptide substrate; higher = more effect of the substance).
Sequence of DPAP1 (Q8IIJ9 whole entry, looked up): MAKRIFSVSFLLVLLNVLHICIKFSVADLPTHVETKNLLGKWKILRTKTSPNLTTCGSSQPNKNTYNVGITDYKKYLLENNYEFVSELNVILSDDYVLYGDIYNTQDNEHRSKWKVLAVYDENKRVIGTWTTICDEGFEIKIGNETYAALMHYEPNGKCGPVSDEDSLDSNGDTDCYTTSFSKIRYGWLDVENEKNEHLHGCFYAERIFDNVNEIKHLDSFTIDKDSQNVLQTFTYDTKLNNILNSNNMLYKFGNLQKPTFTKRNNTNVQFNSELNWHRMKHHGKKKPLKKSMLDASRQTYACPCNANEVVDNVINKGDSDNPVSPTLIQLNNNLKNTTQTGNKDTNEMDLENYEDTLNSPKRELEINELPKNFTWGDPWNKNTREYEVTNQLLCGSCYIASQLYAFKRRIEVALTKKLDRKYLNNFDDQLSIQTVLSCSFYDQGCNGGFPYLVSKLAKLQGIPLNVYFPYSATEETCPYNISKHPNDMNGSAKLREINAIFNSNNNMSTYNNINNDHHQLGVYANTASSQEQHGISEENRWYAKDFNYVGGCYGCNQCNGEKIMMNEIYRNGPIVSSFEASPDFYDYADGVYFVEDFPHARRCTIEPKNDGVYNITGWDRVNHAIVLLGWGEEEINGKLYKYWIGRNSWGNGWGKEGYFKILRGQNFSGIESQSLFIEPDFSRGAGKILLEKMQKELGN
Design: species or system P. falciparum D10 trophozoite lysates; single well
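Also: 30 min substrate incubation versus DMSO and 10 µM JCP410 controls.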

| SMILES | % Inhibition @ 10 uM [%] |
| --- | --- |
| CCOC(=O)C1CCN(Cc2ccc(Cl)cc2)CC1 | -5.68 |
| C=C(C)CN1CCN(c2c3c(c(C#N)c4nc5ccccc5n24)CCC3)CC1 | -1.33 |
| CCOc1ccc(N2C(=O)CC(Nc3ccc(OC)cc3)C2=O)cc1 (stereo not shown) | 2.38 |
| Cc1nnc(N2C(=O)c3oc4ccccc4c(=O)c3C2c2cccc(OCc3ccccc3)c2)s1 (stereo not shown) | 1.19 |
| CC(=O)Nc1sc2c(c1C(c1ccccc1Cl)N1CCN(CCO)CC1)CCCC2 (stereo not shown) | -3.53 |
| CCN(CC)C(=O)Cn1cnc2sc(C(=O)NCCCOC)c(C)c2c1=O | -2.87 |
| COc1cccc(C(=O)NC(C)c2ccc3c(c2)OCCO3)c1 (stereo not shown) | 5.24 |
| Cc1ccsc1-c1nc(CSCC(=O)NCc2ccc3c(c2)OCO3)c(C)o1 | -2.85 |
| O=C(O)CNC(=O)c1ccccc1Cl | -3.44 |
| Cc1cc(C)c(S(=O)(=O)Nc2ccc(Cl)c(Cl)c2)c(C)c1 | -1.22 |
| COCCC/N=C/C1=C(O)c2sccc2N(Cc2cccc(F)c2)S1(=O)=O | -3.09 |
| O=C(CSC1CC(=O)N(c2ccc(F)cc2)C1=O)Nc1cccc(F)c1 (stereo not shown) | -2.89 |
| Cc1nc2ccc(C(=O)Nc3ccc(N4CCOCC4)cc3)cc2s1 | 1.94 |
| CCCc1nc(SC)ncc1C(=O)Nc1nccs1 | 2.74 |
| COc1ccc(CC(C)NCc2ccccc2Cl)cc1 (stereo not shown) | 6.06 |
| O=C(O)c1cc2cc(Cc3ccccc3Cl)ccc2oc1=O | 0.221 |
| COc1ccc(Cl)cc1S(=O)(=O)N1CCN=C1c1ccccc1 | 3.66 |
| Clc1ccc(-c2noc(-c3ccccc3)n2)cc1 | -0.902 |
| COc1ccc(CN2C(=O)c3cccnc3C2=O)cc1S(=O)(=O)NCC1CCCO1 (stereo not shown) | 3.1 |
| CC(C)(C)NC(=O)CCN1C(=O)c2ccccc2C1=O | 16.8 |
| CC(C)OC(=O)NCCN1C(=O)C2C3C=CC(C3)C2C1=O (stereo not shown) | 3.67 |
| CCN1CCN(CC2CC3C=CC2C3)CC1 (stereo not shown) | 2.5 |
| Cc1cc(C)cc(NC=C2C(=O)N(C)C(=O)N(C)C2=O)c1 | 5.65 |
| COCCn1c(=O)c(C#N)cc2c(=O)n3ccccc3nc21 | -2.28 |
| Cc1cccc(CN2CCC(CNC(=O)c3cn(C)c(=O)c4c3c3ccccc3n4C)CC2)c1 | 1.37 |
| Cc1cc(C)c2c(n1)SCC(=O)N2CCCC(=O)NCc1ccccc1 | 1.03 |

| SMILES | % Inhibition @ 10 uM [%] |
| --- | --- |
| O=C(NCCc1ccc(Cl)cc1)C1CC(=O)N(CCc2ccccc2)C1 (stereo not shown) | -0.0542 |
| O=C(NC1CCCCC1)c1ccc(CS(=O)Cc2ccccc2Cl)o1 (stereo not shown) | -3.02 |
| Cc1n[nH]c(C)c1CCc1nc2c3ccccc3nc(NCCCOC(C)C)n2n1 | -2.42 |
| CC(CNC(=O)C1CCCCC1)NC(=O)C1CCCCC1 (stereo not shown) | 1.28 |
| N#CC1CC(c2ccccc2)=NN1c1ccccc1 (stereo not shown) | 1.7 |
| Cc1ccc(OCC(=O)Nc2cccc(Cl)c2Cl)cc1 | 2.69 |
| CC1CC(NC(=O)c2ccc(Br)s2)CC(C)(C)C1 (stereo not shown) | 3.32 |
| O=C(NCCC1=CCCCC1)c1ccc2c(c1)ncn2C1CCCC1 | -3.12 |
| Cn1c(C(=O)NCC2CCCO2)cc2sc(Cl)cc21 (stereo not shown) | -12.6 |
| C=CCSc1nc(=O)cc(O)n1CC | 6.41 |
| CCC1CCc2nc3sc(C(=O)NCc4ccccc4OC)c(N)c3cc2C1 (stereo not shown) | 10.3 |
| Cc1ccc2nc(-c3ccccc3)cc(C(=O)O)c2c1 | 4.8 |
| CC(CC#CCN1CCOCC1)OC(C)(C)C (stereo not shown) | -0.268 |
| N#CC1=C(N)Oc2[nH]nc(-c3cccnc3)c2C1c1cc2c(cc1Br)OCO2 (stereo not shown) | -0.25 |
| Cc1sc2c(c1[N+](=O)[O-])C(=O)NCCC2 | 5.42 |
| O=C(Nc1ccccc1)c1cc(S(=O)(=O)Nc2ccc(Cl)cn2)ccc1Cl | 10 |
| O=C(NCCN1C(=O)C2C3C=CC(C3)C2C1=O)N1CCCCC1 (stereo not shown) | -6.78 |
| O=c1c2oc3ccccc3c2n(Cc2ccc(F)cc2)c(=O)n1Cc1ccc2c(c1)OCO2 | -1.39 |
| CC(=O)c1oc2ccccc2c1NC(=O)c1ccc(C(F)(F)F)cc1 | -3.04 |
| CCc1ccc(-c2cn3c(n2)sc2cc(C(=O)N4CCN(c5ncccn5)CC4)ccc23)cc1 | 20.5 |
| COc1ccc(OC)c2c1nc(C(C)O)n2C (stereo not shown) | -2.72 |
| Cc1csc(NC(=O)c2sc3nc4c(c(C(F)(F)F)c3c2N)CCCC4)n1 | -0.318 |
| COc1ccccc1N(C)C(=O)c1cnoc1C | -2.74 |
| CC(=O)Nc1sc2c(c1C(N)=O)CCCCCC2 | 2.65 |
| O=c1c2ccccc2nc(/C=C/c2ccc(O)c(O)c2)n1-c1ccccc1 | 2.65 |
| CCOc1ccc(C2CC(=O)NC3=C2C(=O)CC(c2ccccc2Cl)C3)cc1 (stereo not shown) | -0.396 |
